Reference: PMC12235650, “Macrocyclization of backbone N-methylated peptides by a prolyl oligopeptidase with a distinctive substrate recognition mechanism” (Chemical Science, 2025)
Residues, ends and D or L forms follow the SMILES beside them. *: point of attachment. pNA = O=[N+]([O-])c1ccc(N*)cc1; Cbz = O=C(OCc1ccccc1)*

Legend:
OphP [1] = target: T1, OphP (Omphalotus olearius, UniProt P9WEN5); test: chromogenic peptidase assay (4-nitroaniline release); format: biochemical; details: activity optimum 30 C, pH 6.0
T1 construct: N-terminal His8SUMO* fusion made in Pichia pastoris; residues 1-738 described in the structure; monomer

OphP [2] = target: T1, OphP; test: X-ray crystallography, crystal soaking, […] A; format: binding; details: covalent; bound to active site Ser580
OphP [3] = target: T1, OphP; test: peptidase activity inhibition assay; format: biochemical; details: covalent; active-site inhibitor

SMILES | chromogenic peptidase assay (4-nitroaniline release) (OphP [1]) | X-ray crystallography, crystal soaking, 2.0 A (OphP [2]) | peptidase activity inhibition assay (OphP [3])
O=C(NCC(=O)N1CCC[C@H]1C(=O)Nc1ccc([N+](=O)[O-])cc1)OCc1ccccc1 [Z-Gly-Pro-4-pNA, benzyloxycarbonyl-Gly-Pro-p-nitroanilide] (Cbz-Gly-Pro-pNA) | confirmed as catalytically active using a standard chromogenic substrate for POPs | – | –
O=C[C@@H]1CCCN1C(=O)[C@@H]1CCCN1C(=O)OCc1ccccc1 [ZPP, Z-Pro-prolinal] (Cbz-Pro-Pro-aldehyde) | – | OphP crystals soaked with covalent inhibitor ZPP overnight showed density at the active site | reduced by Z-Pro-prolinal (ZPP), a common covalent inhibitor for POPs
